From the supplement of paper PMC4967469
Lines with a small IC50 respond at low doses; a limit (>, <) means that the fit lies beyond the doses tested. The AUC spans the tested range (256-fold, ending at the top dose) of the same fit: 1 means no effect, lower means more sensitive. For some assays here: Where the top dose is marked as inferred, it was derived from the fitted curves, not read from the paper. For some assays here: An entry number marks a drug with two screens in the source, which often give different values.

Columns and labels:
Assay in all cases: Viability of human cancer cell lines after 72 h of drug (GDSC screen)
[1] = compound: Oc1cccc(-c2nc(N3CCOCC3)c3oc4ncccc4c3n2)c1 [PI-103]; conditions: top dose 10.24 µM
Protocol: (§1)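 Human cancer cell lines in 384-well plates, medium with 10% serum, drug for 72 h over a 256-fold dose range (nine 2-fold or five 4-fold steps up to the top dose). Adherent lines were fixed and stained with the nucleic acid dye Syto60, suspension lines read with resazurin; signal relative to control wells, capped at 0 and 100%. One two-parameter sigmoid per drug and line, fitted in a mixed model over all curves with the slope shared within a line.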

[2] = compound: O=C(NCCCNc1nc(Nc2cccc(NC(=O)N3CCCC3)c2)ncc1I)c1cccs1 [BX-795]; conditions: top dose 5 µM; top dose inferred
Protocol: as §1

[3] = compound: CC1=C(/C=C/C(C)=C/C=C/C(C)=C/C(=O)O)C(C)(C)CCC1 [Tretinoin]; conditions: top dose 10 µM; top dose inferred
Protocol: as §1

[4] = compound: Cc1cccc(-c2[nH]c(C(C)(C)C)nc2-c2ccc3c(c2)OCO3)n1 [SB-505124]; conditions: top dose 10 µM; top dose inferred
Protocol: as §1

[5] = compound: CCn1c(-c2nonc2N)nc2c(C#CC(C)(C)O)ncc(OC[C@H]3CCCNC3)c21 [GSK690693]; conditions: top dose 10.24 µM; top dose inferred
Protocol: as §1

[6] = compound: COc1cc2c(NC3CCN(C(C)C)CC3)nc(C3CCCCC3)nc2cc1OCCCN1CCCC1 [UNC0638]
Protocol: as §1

[7] = top dose 20 µM, screen: GDSC drug entry 1236, top dose inferred
[8] = top dose 40 µM, screen: GDSC drug entry 245

Which AUC [1] does the source give for EN (endometrium, adherent) here?
Its AUC is 0.646.

And the IC50 [1]?
The IC50 was 1820 nM.

What about the AUC [2] of the same cell line?
Its AUC is 0.868.

And the IC50 [2]?
Its IC50 is > 5 µM.

What about the AUC [3] of the same cell line?
The AUC was 0.984.

What about the IC50 [3] of the same cell line?
Its IC50 is > 10 µM.

What about the AUC [4] of the same cell line?
Its AUC is 0.982.

What about the IC50 [4] of the same cell line?
Its IC50 is > 10 µM.

What about the AUC [5] of the same cell line?
Its AUC is 0.784.

What about the IC50 [5] of the same cell line?
Its IC50 is 5.61 µM.

And the AUC [6, 7]?
The AUC was 0.852.

What about the IC50 [6, 7] of the same cell line?
Its IC50 is > 20 µM.

What about the AUC [6, 8] of the same cell line?
The AUC was 0.713.

And the IC50 [6, 8]?
Its IC50 is 11.9 µM.

What does the source list for ESO26 (oesophagus, adherent)?
AUC [1]: 0.887; IC50 [1]: > 10200 nM; AUC [2]: 0.883; IC50 [2]: 4.82 µM; AUC [3]: 0.971; IC50 [3]: > 10 µM; AUC [4]: 0.725; IC50 [4]: 2.59 µM; AUC [5]: 0.893; IC50 [5]: > 10.2 µM; AUC [6, 7]: 0.706; IC50 [6, 7]: 4.58 µM; AUC [6, 8]: 0.622; IC50 [6, 8]: 5.3 µM

Which results are given for ESO51 (oesophagus, semi-adherent)?
AUC [1]: 0.975; IC50 [1]: > 10200 nM; AUC [2]: 0.913; IC50 [2]: > 5 µM; AUC [3]: 0.907; IC50 [3]: > 10 µM; AUC [4]: 0.942; IC50 [4]: > 10 µM; AUC [5]: 0.928; IC50 [5]: > 10.2 µM; AUC [6, 7]: 0.927; IC50 [6, 7]: > 20 µM; AUC [6, 8]: 0.813; IC50 [6, 8]: 33.9 µM

For ESS-1 (endometrium, adherent), which AUC [1] is on record?
The AUC was 0.762.

And the IC50 [1]?
Its IC50 is 3320 nM.

And the AUC [2]?
Its AUC is 0.945.

And the IC50 [2]?
The IC50 was > 5 µM.

What about the AUC [3] of the same cell line?
Its AUC is 0.99.

What about the IC50 [3] of the same cell line?
Its IC50 is > 10 µM.

What about the AUC [4] of the same cell line?
The AUC was 0.989.

What about the IC50 [4] of the same cell line?
Its IC50 is > 10 µM.

What about the AUC [5] of the same cell line?
Its AUC is 0.98.

And the IC50 [5]?
Its IC50 is > 10.2 µM.

What about the AUC [6, 7] of the same cell line?
Its AUC is 0.787.

What about the IC50 [6, 7] of the same cell line?
Its IC50 is 7.77 µM.

And the AUC [6, 8]?
Its AUC is 0.676.

What about the IC50 [6, 8] of the same cell line?
Its IC50 is 7.29 µM.

How did the AUC [1] turn out when EW-7 (Ewing sarcoma, semi-adherent) was run?
The AUC was 0.535.

What about the IC50 [1] of the same cell line?
The IC50 was 789 nM.

And the AUC [2]?
The AUC was 0.902.

What about the IC50 [2] of the same cell line?
The IC50 was > 5 µM.

And the AUC [3]?
Its AUC is 0.944.

What about the IC50 [3] of the same cell line?
The IC50 was > 10 µM.

And the AUC [4]?
The AUC was 0.969.

What about the IC50 [4] of the same cell line?
The IC50 was > 10 µM.

What about the AUC [5] of the same cell line?
The AUC was 0.397.

And the IC50 [5]?
Its IC50 is 0.347 µM.

What about the AUC [6, 7] of the same cell line?
The AUC was 0.766.

What about the IC50 [6, 7] of the same cell line?
The IC50 was 6.51 µM.

What about the AUC [6, 8] of the same cell line?
The AUC was 0.605.

And the IC50 [6, 8]?
Its IC50 is 4.68 µM.

Which AUC [1] does the source give for FADU (head and neck, adherent) here?
The AUC was 0.902.

And the IC50 [1]?
Its IC50 is > 10200 nM.

What about the AUC [2] of the same cell line?
The AUC was 0.884.

And the IC50 [2]?
The IC50 was > 5 µM.

And the AUC [3]?
Its AUC is 0.988.

And the IC50 [3]?
Its IC50 is > 10 µM.

What about the AUC [4] of the same cell line?
Its AUC is 0.983.

And the IC50 [4]?
The IC50 was > 10 µM.

What about the AUC [5] of the same cell line?
The AUC was 0.988.

And the IC50 [5]?
Its IC50 is > 10.2 µM.

What about the AUC [6, 7] of the same cell line?
Its AUC is 0.953.

What about the IC50 [6, 7] of the same cell line?
The IC50 was > 20 µM.

What about the AUC [6, 8] of the same cell line?
Its AUC is 0.97.

And the IC50 [6, 8]?
The IC50 was > 40 µM.

What does the source list for FLO-1 (oesophagus, adherent)?
AUC [1]: 0.6; IC50 [1]: 1360 nM; AUC [2]: 0.804; IC50 [2]: 3.98 µM; AUC [3]: 0.967; IC50 [3]: > 10 µM; AUC [4]: 0.954; IC50 [4]: > 10 µM; AUC [5]: 0.932; IC50 [5]: > 10.2 µM; AUC [6, 7]: 0.826; IC50 [6, 7]: > 20 µM; AUC [6, 8]: 0.837; IC50 [6, 8]: > 40 µM

Which AUC [1] does the source give for FTC-133 (thyroid, adherent) here?
Its AUC is 0.819.

And the IC50 [1]?
Its IC50 is 6600 nM.

And the AUC [2]?
The AUC was 0.831.

And the IC50 [2]?
Its IC50 is 3.6 µM.

And the AUC [3]?
Its AUC is 0.966.

And the IC50 [3]?
The IC50 was > 10 µM.

And the AUC [4]?
The AUC was 0.964.

And the IC50 [4]?
Its IC50 is > 10 µM.

What about the AUC [5] of the same cell line?
The AUC was 0.983.

And the IC50 [5]?
Its IC50 is > 10.2 µM.

And the AUC [6, 7]?
The AUC was 0.967.

And the IC50 [6, 7]?
The IC50 was > 20 µM.

And the AUC [6, 8]?
Its AUC is 0.979.

What about the IC50 [6, 8] of the same cell line?
The IC50 was > 40 µM.

For FU97 (stomach, adherent), which AUC [1] is on record?
Its AUC is 0.986.

What about the IC50 [1] of the same cell line?
Its IC50 is > 10200 nM.

And the AUC [2]?
The AUC was 0.85.

And the IC50 [2]?
The IC50 was 3.98 µM.

And the AUC [3]?
The AUC was 0.895.

And the IC50 [3]?
The IC50 was > 10 µM.

What about the AUC [4] of the same cell line?
Its AUC is 0.962.

What about the IC50 [4] of the same cell line?
Its IC50 is > 10 µM.

And the AUC [5]?
Its AUC is 0.942.

What about the IC50 [5] of the same cell line?
Its IC50 is > 10.2 µM.

What about the AUC [6, 7] of the same cell line?
Its AUC is 0.984.

What about the IC50 [6, 7] of the same cell line?
Its IC50 is > 20 µM.

What about the AUC [6, 8] of the same cell line?
Its AUC is 0.862.

And the IC50 [6, 8]?
Its IC50 is 35.8 µM.

With FU-OV-1 (ovary, adherent) as the cell line, how does the AUC [1] read?
Its AUC is 0.559.

And the IC50 [1]?
Its IC50 is 978 nM.

And the AUC [2]?
The AUC was 0.973.

And the IC50 [2]?
Its IC50 is > 5 µM.

What about the AUC [3] of the same cell line?
The AUC was 0.972.

What about the IC50 [3] of the same cell line?
Its IC50 is > 10 µM.

What about the AUC [4] of the same cell line?
The AUC was 0.941.

And the IC50 [4]?
The IC50 was > 10 µM.

And the AUC [5]?
Its AUC is 0.982.

What about the IC50 [5] of the same cell line?
The IC50 was > 10.2 µM.

And the AUC [6, 7]?
The AUC was 0.978.

What about the IC50 [6, 7] of the same cell line?
The IC50 was > 20 µM.

What about the AUC [6, 8] of the same cell line?
The AUC was 0.912.

And the IC50 [6, 8]?
The IC50 was > 40 µM.
